Experimental data taken from PubChem BioAssay AID1159614 (National Center for Advancing Translational Sciences (NCATS), 2016).
About 65 (0.1%) of roughly 45,000 compounds were called active. Calls come from the whole dose curve; as a rule, active = well fitted activation curve with a large enough effect; inconclusive = small, poorly fitted or top-dose-only effect; inactive = no such curve, though single readings can be large or run the other way. Some of the results follow.

Target: Galactocerebrosidase (Homo sapiens) (UniProt P54803)
Test: A Novel Cell-Based Assay to Identify Small Molecules for B -Galactocerebrosidase; note: 0% is about no effect; nearly all actives have a fitted effect of over 65% in size
Conditions: 145M-Twi-hGALC-G270D cells (Twitcher mouse brain line with human GALC G270D), HMU-beta-Gal fluorescence, 48 h; series mostly up to 57.5 µM; activation: at the top concentration
Procedure, shortened: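 Live 145M-Twi cells (Twitcher mouse brain-derived, GALC-null) stably expressing human GALC-G270D, with a wild-type GALC line, were compound-treated. Residual GALC activity was then read as fluorescence from 0.1 mM final HMU-β-gal at pH 5.2; higher signal means activation.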

Chain of UniProt P54803 (P54803 whole entry, looked up): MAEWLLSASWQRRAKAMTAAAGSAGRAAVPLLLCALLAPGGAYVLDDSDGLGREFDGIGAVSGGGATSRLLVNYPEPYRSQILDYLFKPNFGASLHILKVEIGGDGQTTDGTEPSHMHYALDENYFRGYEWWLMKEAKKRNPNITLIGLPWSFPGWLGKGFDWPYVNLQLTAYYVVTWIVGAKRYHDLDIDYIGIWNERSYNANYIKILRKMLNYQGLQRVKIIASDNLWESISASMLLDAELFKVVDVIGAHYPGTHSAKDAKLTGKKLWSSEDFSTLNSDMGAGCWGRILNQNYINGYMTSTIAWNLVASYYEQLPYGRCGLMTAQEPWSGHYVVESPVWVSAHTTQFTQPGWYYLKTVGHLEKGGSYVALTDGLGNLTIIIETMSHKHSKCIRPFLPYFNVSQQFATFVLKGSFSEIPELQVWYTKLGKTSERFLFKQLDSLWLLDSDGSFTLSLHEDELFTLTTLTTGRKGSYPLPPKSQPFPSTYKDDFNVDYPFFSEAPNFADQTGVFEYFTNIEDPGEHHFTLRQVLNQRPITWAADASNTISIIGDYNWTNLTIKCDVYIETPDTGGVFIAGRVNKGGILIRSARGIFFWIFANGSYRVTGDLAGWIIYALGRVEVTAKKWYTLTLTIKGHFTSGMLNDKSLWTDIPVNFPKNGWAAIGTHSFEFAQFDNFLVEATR

activation, inactive:
CCOc1ccccc1NC(=O)N1CCN(C)c2ncccc21 -30.4%
COc1cc(-c2noc(CN3CCN(c4cccc(Cl)c4)CC3)n2)cc(OC)c1OC -14%
CSc1cccc(NC(=O)CC(c2cccs2)N2Cc3ccccc3C2=O)c1 (stereo unspecified) -35.5%
O=Cc1ccccc1C=O -16.1%
COc1ccc(Cn2c(=O)n(-c3ccccc3C)c(=O)c3c4c(sc32)CN(C(C)=O)CC4)cc1 -16.6%
CCCN(CCC)CCNC(=O)c1cc2c(-c3ccc(Cl)cc3)nn(C)c2s1 0.874%
O=C(Nc1cccc(Cl)c1Cl)c1cc2nc(-c3ccc(Cl)cc3)cc(C(F)(F)F)n2n1 -6.96%
CCC(C(=O)Nc1nnc2n1CCS2)c1ccccc1 (stereo unspecified) -16.6%
CCOC(=O)c1c(C)sc(-c2c(-c3cc(C)ccc3C)[nH]c3c2c(=O)n(C)c(=O)n3C)c1O -19.2%
Cc1ccc(NC(=O)CCn2nc(C)c(S(=O)(=O)N3CCCCC3)c2C)cc1Cl -15%
CCOc1ccc(N(CC(=O)Nc2cc(C)ccc2C)S(=O)(=O)c2c(C)[nH]c(=O)[nH]c2=O)cc1 -13.9%
COc1ccc(NC(=O)N2CCc3c(sc4c3CCCC4)C2c2ccccc2OC)cc1 (stereo unspecified) -7.52%
CC(C)CC(=O)Nc1ccc2nc(SCC(=O)N3CCCC3)sc2c1 -16.6%
CCCNC(=O)CSc1nc2ccccc2nc1Cc1ccc(Cl)cc1 -11.5%
Cc1ccc(OCC(=O)NCC(c2ccc(Cl)cc2)N2CCCCC2)cc1 (stereo unspecified) -7.96%
Cc1ccc(C)c(CN2C(=O)c3ccccc3S(=O)(=O)c3ccc(C(=O)N4CCc5ccccc54)cc32)c1 -3.9%
CCN(c1ccc(C)cc1)S(=O)(=O)c1nnc(NC(=O)C2CCCCC2)s1 -19.6%
Cc1cccc(NC(=O)c2cc(S(=O)(=O)NCc3ccc4c(c3)OCO4)ccc2F)c1C -15.4%
CN(C)CCCN1c2ccccc2Sc2ccc(C(F)(F)F)cc21 -14%
CCOC(=O)Cn1c(=O)n(CC2CCCO2)c2nc(-c3ccccc3F)nc(C(N)=O)c21 (stereo unspecified) -11.2%
Cc1ccc(Cn2cc(C(=O)c3ccc(F)cc3)c(=O)c3cc4c(cc32)OCO4)cc1 -8.74%
COc1ccc(CNS(=O)(=O)c2cc3c(cc2C)N(C)CCO3)cc1 -3.65%
CCOC(=O)c1ccc(OCC2c3cc(OC)c(OC)cc3CCN2C(=O)c2ccc(S(=O)(=O)N3CCCC3)cc2)cc1 (stereo unspecified) -25.4%
COc1ccc(-n2c(C)c(C(C)=O)c3cc(OC(=O)c4ccc(C)cc4)ccc32)cc1 -9.03%
CCn1c(CNC(=O)c2ccc(OC)cc2)nnc1SCC(=O)Nc1ccccc1 -22.2%
COC(=O)c1ccc(NC(=O)CCc2c(C)nc3c(-c4ccccc4)c(C)nn3c2C)cc1 -32.2%
Cc1ccc(CCNC(=O)c2cn(C)c3ccc(S(=O)(=O)N(C)C4CCCCC4)cc3c2=O)cc1 -18.9%
CCC1=Nc2cc(C(=O)NCC(C)c3ccccc3)ccc2Sc2ccc(C)cc21 (stereo unspecified) -11.3%
COc1ccc(-c2nc3scc(CCNS(=O)(=O)c4ccccc4F)n3n2)cc1 1.47%
COc1ccc(-c2noc(-c3ccc(N4CCCC4)c([N+](=O)[O-])c3)n2)cc1 -31.6%
CCN1CCN(c2ncnc3c2cnn3-c2ccc(C)c(Cl)c2)CC1 -20%
COc1ccc(C)cc1S(=O)(=O)NCC(c1cccs1)S(=O)(=O)c1ccc(C)cc1 (stereo unspecified) -6.25%
CC(Oc1ccc(F)cc1)C(=O)Nc1nc(-c2ccc(F)cc2)ns1 (stereo unspecified) -42.5%
COc1ccccc1-n1c(=O)c2c3c(sc2n(C)c1=O)CN(C(C)=O)CC3 -22.7%
O=C(NCc1ccc2c(c1)CCN2C(=O)c1ccccc1)Nc1cc(F)ccc1F -26.4%
CCOC(=O)Cc1ccc(NC(=O)Nc2ccccc2OCc2cc(=O)n3ccccc3n2)cc1 -14.4%
COc1ccc(Cn2c(CNS(=O)(=O)c3ccc(C)c(C)c3)nc3cccnc32)cc1 -0.483%
CCn1nnc2cc(C(=O)Nc3cccc(Cl)c3C)ccc21 -17.1%
CCCCN(CCCC)CCNC(=O)c1cn(CC)c2ccc(S(=O)(=O)N3CCc4ccccc4C3)cc2c1=O -21.5%
CCCN(CCC)CCNC(=O)CN1C(=O)COc2ccc(S(=O)(=O)N3CCC(C)CC3)cc21 -2.3%
CCOc1ccc(/C=C/c2nc(C#N)c(N3CCCCC3)o2)cc1 -14.8%
Cc1ccc(-c2nc3ccccc3s2)cc1NC(=O)COc1ccccc1 -7.92%
Cc1ccc(OCC(=O)NCC2(N3CCOCC3)CCCCC2)cc1C 10.5%
CCC1CN(C(=O)C2CCN(S(=O)(=O)c3c(C)noc3/C=C/c3ccccc3F)CC2)c2cc(Cl)ccc2O1 (stereo unspecified) -5.26%
COc1ccc(N(Cc2cccs2)C(=O)c2ccc(Br)o2)cc1 -21.5%
O=C(CN(CCc1ccccc1)S(=O)(=O)c1ccc(Br)cc1)NCc1ccc(Cl)cc1 1.02%
CCOC(=O)Cn1nc(-c2ccccc2)c2cnc3ccc(OCC)cc3c21 4.62%
CCOC(=O)CSc1nc2c([nH]c3ccccc32)c(=O)n1-c1ccc(OC)cc1 -9.7%
Cc1oc(-c2cccc(Cl)c2)nc1CN1CCC(C(=O)NCCCN2CCN(c3ccccc3F)CC2)CC1 -23.1%
CCCOC(=O)c1ccccc1 -13.2%
CCc1ccc(NC(=O)CSC2=Nc3ccccc3C3=NC(CC(=O)NC4CCCCC4)C(=O)N23)cc1 (stereo unspecified) -11.1%
COc1ccc(NC(=O)C2CCCN(S(=O)(=O)c3ccc4c(c3)CCCC(=O)N4)C2)cc1OC (stereo unspecified) -41.1%
Cc1ccc2c(=O)cc(C(=O)Nc3ccc(S(=O)(=O)Nc4nc(C)cc(C)n4)cc3)oc2c1 -14.8%
O=C(C1CCN(c2ncnc3c2nc2n3CCCCC2)CC1)N1CCN(c2ccc(F)cc2)CC1 -10%
CCOc1cc(C2C(C(=O)Nc3ccc(OC)cc3)=C(C)Nc3nc(SC)nn32)ccc1O (stereo unspecified) -9.63%
COc1ccc(S(=O)(=O)NCC(c2ccc(N(C)C)cc2)N2CCc3ccccc32)cc1 (stereo unspecified) -6.04%
COc1ccccc1N1CCN(C(=O)CCc2nnc3n(C)c(=O)c4sccc4n23)CC1 7.02%
Cc1cccc(C(=O)Nc2ccc(C(=O)OCc3cc(=O)n4nc(C5CC5)sc4n3)cc2)c1 -26.7%
CCCC(=O)N1CC(=O)Nc2ccc(Cl)cc2C1c1ccccc1 (stereo unspecified) -18.6%
CCC(Sc1ncnc2sc3c(c12)CCCC3)C(=O)OC(C)C (stereo unspecified) -6.62%
CCc1ccc(NC(=O)Cn2c(=O)n(Cc3nc(-c4ccccc4)no3)c(=O)c3cc4c(cc32)OCO4)cc1 7.59%
